Numbering of substitutions follows the chain as printed. Results are given in words; binding and its absence hold for the method and conditions named. Binding seen in cells or lysates may run through a third protein. Some results given as binding are weak or reduced against the parent protein; the word gives no strength. Where a sequence is shown, tags or fusion partners need not be part of it.
Experiments:
Assay in all cases: co-IP; HEK293 cells co-expressing Flag-LRRK2 (R1441G or Y1699C), HA-Rab and GFP-tagged effector, no MLi-2; GFP fusion precipitated with GFP binder Sepharose, 1 h, washed in 50 mM Tris-HCl pH 7.5, 150 mM NaCl; immunoblot
[1] = molecular target: T1, RILPL2-GFP K149E (human) (UniProt Q969X0)
T1 sequence: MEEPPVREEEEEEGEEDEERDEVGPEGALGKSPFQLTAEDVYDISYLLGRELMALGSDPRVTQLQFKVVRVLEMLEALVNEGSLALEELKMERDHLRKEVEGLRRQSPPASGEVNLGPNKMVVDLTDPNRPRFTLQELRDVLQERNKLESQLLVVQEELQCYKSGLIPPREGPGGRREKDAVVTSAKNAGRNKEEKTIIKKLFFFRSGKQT

Amino acid sequences for entries named in this document (tags omitted).
UniProt P61006: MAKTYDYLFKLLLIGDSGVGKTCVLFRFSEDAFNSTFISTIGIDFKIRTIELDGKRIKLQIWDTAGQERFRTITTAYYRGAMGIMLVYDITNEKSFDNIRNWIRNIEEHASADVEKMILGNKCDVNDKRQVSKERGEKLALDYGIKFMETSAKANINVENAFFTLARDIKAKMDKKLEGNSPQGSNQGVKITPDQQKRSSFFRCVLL

[2] = molecular target: T2, RILPL2-GFP P131A (human) (UniProt Q969X0)
T2 sequence: T1 sequence with P131A, E149K

[3] = molecular target: T3, RILPL2-GFP R132K (human) (UniProt Q969X0)
T3 sequence: T1 sequence with R132K, E149K

[4] = molecular target: T4, RILPL2-GFP WT (full length) (human) (UniProt Q969X0)
T4 sequence: T1 sequence with E149K

[5] = molecular target: T5, RILPL2-GFP R132Q (human) (UniProt Q969X0)
T5 sequence: T1 sequence with R132Q, E149K

[6] = molecular target: T6, RILPL2-GFP R132A (human) (UniProt Q969X0)
T6 sequence: T1 sequence with R132A, E149K

[7] = molecular target: T7, RILPL2-GFP K149Q (human) (UniProt Q969X0)
T7 sequence: T1 sequence with E149Q

[8] = molecular target: T8, RILPL2-GFP R139Q (human) (UniProt Q969X0)
T8 sequence: T1 sequence with R139Q, E149K

In the case of “HA-Rab8a WT, LRRK2-phosphorylated (pT72) (from UniProt P61006 1-207)”, the binding [1] is reported as “no binding”, the binding [2] is reported as “binds” and the binding [3] is reported as “no binding”. The binding [4] was “binds”, the binding [5] was “no binding” and the binding [6] was “no binding”. The binding [7] was “no binding” and the binding [8] was “binds”.
